Structures are written as SMILES. The campaign covered roughly 150,000 compounds. About 540 (0.36%) showed an effect of 50% or more. Some of the results follow.

In the assay the test system is Plasmodium falciparum. The experiment in a line: Primary screen in NF54 nanoGlo assay, in single point, at 2uM, 72h; a lower Z score goes with more inhibition. It is filed as functional, Erythrocyte. The settings on record: timepoint 72 hour.
With `CCC(NC(=O)c1c[nH]c2ccc(OC)cc2c1=O)[C@H]1C[C@@H](O)C1` (some centres undefined), the “% Inhibition” value was -17% and the Z score worked out at 3.31.
Taken in the same sequence, the figures for `C[C@@H](c1ccccc1)N(Cc1nc(C(=O)NCc2ccco2)co1)Cc1ccccc1C(F)(F)F` were -9% and 1.26.
On the same counts, the results for `C[C@@]1(CO)CN(C(=O)c2ccc(Cl)cc2)C[C@@H]2CN(C(=O)c3ccccc3)CCN21` are 5% and -0.69.
On the same counts, the results for `Cc1cnn([C@@H](C)CNC(=O)c2cncn2C)c1` are 8% and -1.62.
For `CC(C)c1ccc(CCC(=O)NC2CC3CCC2C3)cc1` (centres undefined), the “% Inhibition” value is given as -10% and the Z score is recorded as 1.14.
Taken in the same sequence, the figures for `Cc1ccc(CNC(=O)Cn2cnc3nc(N4CCCCC4)sc3c2=O)cc1` were -5% and 0.98.
On the same counts, the results for `CCOC(=O)c1noc2ncnc(NCCc3ccccc3)c12` are 2% and -0.38.
On the same counts, the results for `Cc1c(C(=O)NC[C@H]2COC3(CCCCCC3)O2)cnn1C` are -15% and 2.85.
Turning to `COc1nc2c(cc1CNC(=O)[C@H]1CC13CCCC3)C(=O)N(C1CCCC1)C2`, the “% Inhibition” value turned out to be 1% and the Z score was -0.24.
With `O=C1[C@H](c2ccc(F)cc2)N(Cc2ccccc2)C(=O)CN1C1CCCCCC1`, the “% Inhibition” value is given as -1% and the Z score is 0.22.
Taken in the same sequence, the figures for `CC(=O)N(CC(=O)N1CCc2sccc2[C@@H]1COc1ccc(C(C)C)cc1)CC1CC1` were 2% and -0.27.
As for `Cc1ccc(-c2noc(CCN(C(=O)c3ccco3)C3CCCCC3)n2)cc1`, the “% Inhibition” value is -3% and the Z score turned out to be 0.37.
As to `Cn1c2c(c(=O)n3ncc(C(=O)NC4CCCCC4)c13)CN(Cc1ccccc1)CC2`, the “% Inhibition” value amounted to 0% and the Z score amounted to 0.01.
On the same counts, the results for `CCCN(C(=O)CC1CCN(C(=O)OC(C)(C)C)CC1)c1cccnc1` are -8% and 0.84.
Taken in the same sequence, the figures for `COc1ccc(CNC(=O)N2CCN(c3c(C)nn(-c4ccccc4)c3C)CC2)cc1OC` were -14% and 2.59.
For `COCCC[C@H]1CCCCN1S(=O)(=O)c1ccc(-c2cc(C)no2)o1`, the “% Inhibition” value was determined as 3% and the Z score is on record as -0.64.
On the same counts, the results for `c1ccc(-n2cnc(-c3nc(-c4cnccn4)no3)n2)cc1` are -17% and 1.95.
Taken in the same sequence, the figures for `C[C@H](NCc1ccc2c(c1)OCO2)c1cccnc1` were -8% and 0.83.
Taken in the same sequence, the figures for `Cc1cccc(C(=O)N2CCn3c(nn(CC(C)C)c3=O)[C@H]2c2ccccc2)n1` were 0% and -0.08.
For `Cc1nc(O)c(Br)cc1C(=O)N1CC2(CC2)C1`, the “% Inhibition” value is listed as 1% and the Z score was -0.13.
On the same counts, the results for `O=C(Nc1ccc(Br)cc1F)[C@H]1CCCN(c2cnc3ccccc3n2)C1` are -13% and 1.57.
As for `O=C1CCc2cc(C(=O)N3CC(C4CCC4)C3)ccc2N1`, the “% Inhibition” value is -15% and the Z score was 1.95.
For the molecule `O=C(c1ccccc1)N1CC[C@H](Nc2ncccc2Cl)[C@@H](O)C1`, the “% Inhibition” value is -9% and the Z score came out at 1.31.
Taken in the same sequence, the figures for `Cn1cc([C@H]2CN(C(=O)CC3(C(F)(F)F)CC3)CC2(C)C)cn1` were 12% and -1.48.
On the same counts, the results for `COCCn1cnc2c(-c3ccccc3)cn(CC(=O)N3CCN(c4ccccc4F)CC3)c2c1=O` are 1% and -0.11.
Taken in the same sequence, the figures for `CCNc1nc(C(=O)NCCNS(=O)(=O)CC)cs1` were -10% and 0.98.
In the case of `CN1CCN(CC(=O)Nc2cccc(S(=O)(=O)N3CCCC3)c2)CC1`, the “% Inhibition” value was -13% and the Z score is 1.34.
Regarding `Cc1nc(O)c(C(=O)NCCn2ccnc2)cc1Br`, the “% Inhibition” value came out at 3% and the Z score is -0.47.
On the same counts, the results for `COCCn1cnc2cc(NC(=O)C3CCCCC3)cc(C(=O)N3CCC[C@H](O)C3)c21` are 9% and -1.15.
On the same counts, the results for `CC(C)CS(=O)(=O)N1CCC(C#N)CC1` are -29% and 3.68.
On the same counts, the results for `COc1ccc2c(c1)N(S(=O)(=O)c1cn(C)nc1C)CCO2` are -6% and 0.98.
As to `O=C(C1CCN(C(=O)C2(c3cccc(F)c3)CCC2)CC1)N1CCCC1`, the “% Inhibition” value is on record as -2% and the Z score is on record as 0.25.
Taken in the same sequence, the figures for `CN(C(N)=NCC1(c2cc(F)cc(C(F)(F)F)c2)CC1)C1CC1` were -1% and 0.13.
Consider `Cc1cc(C)n([C@@H](C)C(=O)N2CCn3nc(Cc4ccccc4)cc3C2)n1`, for which the “% Inhibition” value is -10% and the Z score amounted to 1.67.
Taken in the same sequence, the figures for `Cc1ccc(OCCN2CCN(C(=O)N(C)C)[C@H]3CS(=O)(=O)C[C@H]32)c(C)c1` were -3% and 0.42.
For the molecule `O=C(CCN1CCOCC1)N1C[C@@H]2CC[C@H]1CN(Cc1cscn1)C2`, the “% Inhibition” value is -2% and the Z score is on record as 0.33.
Taken in the same sequence, the figures for `Cc1nc(C)c(CC(=O)N[C@H]2CCN(c3cnccn3)C[C@@H]2O)s1` were -9% and 1.41.
Taken in the same sequence, the figures for `O=C(NCCN1CCN(c2nc(C3CC3)ns2)CC1)C1CCC1` were 5% and -0.55.
On the same counts, the results for `O=C1CC[C@H](NC(=O)c2cccc(OC(F)F)c2)CCN1` are -3% and 0.52.
With `Cc1ncc(S(C)(=O)=O)c(N2CCN(C(=O)c3cccs3)CC2)n1`, the “% Inhibition” value amounted to 3% and the Z score is -0.57.
Taken in the same sequence, the figures for `Cc1ccc2c(=O)c(-c3nc(-c4ccc(Cl)cc4)no3)cn(Cc3cccc(Br)c3)c2n1` were -14% and 2.19.
As to `Cc1noc(CNC(=O)c2cc(-c3ccc(F)cc3)c[nH]2)n1`, the “% Inhibition” value is -2% and the Z score was found to be 0.3.
